This test concerns SK-MEL-28 melanoma. Kind of test: NCI-60 one-dose screen, 48 h (100 = growth as untreated, 0 = no growth, -100 = all killed). The conditions noted are these: 0.25 µM.

The source holds several records for some structures; these can differ, active in one and inactive in another.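 Cells were grown in 96-well plates and exposed to the test compound at a single concentration for 48 hours; results are reported as percent growth, with values below 10 considered active.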 A number of entries come with more than one value. This list holds those alone. An entry can have further records. These are repeated runs of one drug, at the concentration stated with the values; one value stands for one run. Marks such as (2×) count equal records among those shown.

As to `COc1cccc2c1C(=O)c1c(O)c3c(c(O)c1C2=O)C[C@@](O)(C(=O)CO)C[C@@H]3OC1CC(N)C(O)C(C)O1` (stereo not given in full), the growth result is, setting by setting: (runs of 2007) “inactive: 51.6, 68.3, 44.7, 50.4, 67, 63.2, 70.7, 64.6, 58.7, 68.2, 69.3, 43.6, 65.3, 68.6, 61, 55.4, 61.7, 60, 73.1, 61.3, 68.4, 79.9, 68, 69, 72.7, 66.1, 67.5, 10.8, 73.6 (2×), 71.3, 46.5, 41.3, 48.9, 63.8, 58.3, 58, 45.7, 56.1, 88.5, 63.3%”; (runs of 2008) “inactive: 80.3, 71.9, 57.3, 66.2, 73.7, 60.9, 71.5, 63.9, 81.8, 72.5, 61.4, 60.8, 22.5, 44, 56.7, 73.2, 53.3, 67.5, 44.8, 59.5, 68.9 (2×), 60.6, 50.1, 33.6, 46.9, 121, 59.3, 26.9, 18.5, 66, 20.5, 55.2, 64.6, 63.2, 57.5, 35.7, 40.2, 41.3, 68.7, 66.6, 62.5, 67.3, 70.8, 87.9, 80.7, 42.8, 45.9, 73.5, 45.3, 58.1, 49.4, 76.1% and active: 4.26%”; (runs of 2009) “inactive: 59.6 (2×), 55.5, 53.5, 54.3, 75.9, 68.1, 65.3, 72.6 (2×), 68.4, 69.3, 74.3, 50.3, 78.2, 71.6, 65.2, 74, 62.6, 67.9, 68, 66.1 (2×), 66.6, 40.6, 54, 61.4, 55.9, 65.4, 74.7 (2×), 70.6 (2×), 51.6, 72, 66.3, 67.4, 58, 73.9, 67.2, 56.5, 63.9, 59.3, 63 (2×), 64.1, 59.2, 58.7, 71.8, 61.3, 60.8, 47.7, 71.7, 63.8, 52.8, 49.8, 86.8, 68.5, 61, 78.4, 72.9, 61.6, 64.8, 53.7%”; (runs of 2010) “inactive: 72.2 (3×), 84.4, 64.2, 70.2 (4×), 72.6, 68.2, 74.6 (2×), 83.8, 68.9, 64.7 (2×), 65.6, 65, 64.3, 59.9, 60.2 (2×), 75.4, 55, 63.2 (2×), 58.5 (3×), 64, 66.2, 60.3 (2×), 76.8, 45.2, 77.5, 69.7, 66.9, 69.2, 59.1, 67.5, 70.8, 66.5, 68.4, 70, 82, 82.8, 65.3, 66, 70.5%”; (runs of 2011) “inactive: 77 (2×), 76.9, 70.7, 77.5, 77.1, 71.8, 72.8, 71.7, 59.1, 72.7, 65.3, 79.7, 64, 79.1, 78.2, 80.4, 64.7, 79.9, 81.7, 80.9, 79.2, 88.6, 81.8, 88, 68.4, 80.1, 77.8, 56.1, 50.4, 66.7, 72.5, 53.1, 51.6, 56.7, 59.3, 58.1, 53, 59.9, 57.1, 56.9, 56.4, 59.2, 61.2, 52.1, 47, 49.9, 67.5, 69.7, 56.6, 49.5, 64.3, 68.1, 66.2, 55.6, 65.9, 73.4, 66.6, 78.4, 69.6, 68.3%”; (runs of 2012) “inactive: 61.4, 47.9, 57 (2×), 58.8, 66.5, 70.5 (2×), 72.2, 75.6, 52.1, 61 (2×), 63, 60, 68.6, 51.4, 50.6, 50.3, 53.5, 53.9, 52.5, 67.2, 60.9, 66.7, 76.1, 72.5, 66.2, 77, 79.1, 74.2, 75.4, 79.9, 73.2, 80.8 (2×), 65.9, 63.9 (2×), 65.4, 46.3, 69, 64.2, 72.4, 64.7, 75.7, 71.6, 71.3, 72.1, 69.6, 78.9, 85.3, 85.2, 81.7, 74.5, 76.4, 86.4, 73.5, 68.1, 71.9, 71.8, 63.5, 64.3, 54.7, 61.2, 62.7, 64%”. In addition, the growth entry was “inactive: 66.9, 71.2, 77.2 (2×), 67.4, 72.5, 73.8 (2×), 73.2, 72.3, 79.9, 70.8, 74, 73.1 (2×), 77, 75.7 (2×), 71.3 (2×), 75.1, 77.4 (3×), 80.6 (2×), 80.7 (3×), 78.6 (2×), 81.2 (2×), 82.8, 73.4, 79.6, 81.1, 80, 69, 61.6 (2×), 77.1 (2×), 74.4, 77.3 (3×), 78.7, 67.2, 60.5, 77.5, 83.5, 69.1, 62.2, 67.9, 59.1, 64.3, 36.9, 49.8, 47.4, 46.1, 43.6, 44.4, 54.5, 53.2, 39.9, 33, 49.9, 58, 30.4%” (runs of 2013); “inactive: 55.7 (2×), 52.8 (2×), 61.7, 58.7, 48.6, 63.2 (2×), 46.7, 50, 59.2, 47.7 (2×), 63.9, 48.3, 56.7, 62.3 (2×), 65.6, 72.6, 58.4, 68.1 (3×), 53.3 (2×), 49.2, 55.5, 57.2, 52.9, 54.6, 56.9 (2×), 55.9, 45.5, 41.2, 47.4, 51.8, 49.1, 50.6, 49.5, 42.9, 46.8 (2×), 49.4, 36, 24.8, 47.5, 31.2, 48.2, 46.6, 28.9, 31.7, 37.3, 40.6 (2×), 47.3, 40.5, 39.3, 34.9, 40.2, 45.1, 41.8, 69.2, 56.3, 52.4, 67.1, 60.9 (2×), 65.5, 48.8, 57.8, 54, 64.1, 64.5, 59.9, 67.2, 55.6, 64, 74, 61.6, 61%” (runs of 2014); “inactive: 61.4 (2×), 56.5, 64.2, 59.3, 45.9, 59, 58.8 (2×), 50.9, 73.1 (2×), 73.4, 70.8, 44.1 (2×), 52.3, 48.1 (2×), 35.3, 45.6, 55.2 (3×), 49.9, 65.3, 58.5, 54.6, 51.3 (2×), 47.4, 61.3, 57.3, 67, 54, 51.5, 60.6 (2×), 50, 50.8, 53.9, 66.6, 47.2, 38.8, 56.4, 55.4, 51.2 (2×), 53.4, 64.1, 53.8, 61 (2×), 50.1, 52.2, 60.9, 76.3, 81.1, 61.6, 55.9, 73.7, 54.3, 55, 63.8, 58, 70.2, 68, 71.7, 55.7 (2×), 63.7, 69.2, 53, 58.7, 69, 50.7, 68.3, 63.9, 64.6, 65.5%” (runs of 2015); “inactive: 52.2, 62.3, 66.7 (2×), 71.9, 73.2, 49.2, 71.2, 73.8, 57.1, 61.7, 58.7, 62.2, 72.7, 53, 67.2 (2×), 54, 65.4 (2×), 61.3, 68.3 (2×), 77.7, 60.6, 48.2, 61.9, 62.1, 59.4, 57.3, 42.6, 60.9, 48.9, 50.6, 46.4, 56.4, 54.6, 48.4, 53.5, 60.1, 68.4, 76.4 (3×), 55.9, 73.4 (2×), 65.5, 72.5 (2×), 75.7 (2×), 66.9, 58.6, 66.1, 65.3, 73.6, 73.9, 72.1, 78.4 (2×), 78.9, 76.1, 70.2, 73.5, 69.7, 78.5, 79.4, 67.5, 79.3, 80.5, 77.1, 78.2, 74.5, 71.8, 64.1, 71.3, 78, 64.3, 67, 68, 69.1, 77.3, 74.3, 76.3%” (runs of 2016); “inactive: 76.7, 65.2, 67.4, 56.5 (3×), 61.4, 59.3, 64.8, 62.3 (3×), 65.4, 59.4, 56.7, 56.9, 55.4 (2×), 65.9, 67.1, 67, 57.9, 57.5, 55.5, 59.2 (2×), 54.2, 49.2, 58.4, 60.1 (2×), 59.1, 56.2 (2×), 61.7, 54.6, 60.8 (2×), 62.9, 69.1, 64.3, 60.3, 53.4, 58.1, 71.2, 69.6, 65.1 (2×), 64.7 (2×), 64, 70.7, 71.9, 73.7, 65.7, 66.5 (2×), 57.1, 60.6 (2×), 69.7, 72.1, 58.9, 60.4, 59.8, 59.9 (2×), 55.3, 62.2, 54, 51.9, 60.9, 60, 67.2, 71.7, 78.5, 58.8, 65.5%” (runs of 2017); “inactive: 69.8, 58.6, 61.8, 69.3, 63.3, 59.3, 60.4 (2×), 57.2, 68.1, 72.6, 78.9, 69.6, 74.6, 64.7, 68, 66.1, 71, 70.7, 63.8, 67.2, 66, 62.7, 67.1, 67.3, 64.1, 61.7, 67.4, 77.3, 73.4, 63.5, 66.2, 70.5, 75.1, 66.6, 59.5, 67.9, 63.2, 58.4, 68.9, 63.9, 69.7, 62.9, 62.3, 69.1, 75, 43.8, 55.6%” (runs of 2018). Besides, the growth entry (runs of 2019) is “inactive: 63.8, 63.7, 50.9, 42.2, 54.2, 54.6, 58.6, 56.3, 61.3, 64.5, 66.6, 79.5, 74.5, 70.8, 75.4, 57.4, 64.3, 61.9, 66.7, 69.2, 62.9, 63, 64 (2×), 65.2, 64.7, 60.6, 57.2 (2×), 55.9, 58.7, 53.6, 60, 54.8, 56.6, 58.8, 73.2, 68.2, 64.1, 57.5, 65.3, 62.5, 65.6, 53.1, 51.7, 51.6%”; the growth entry (runs of 2020) was “inactive: 61 (2×), 52.2, 64.5, 59.9, 59.4, 55.8, 57.3, 62.2, 55.9, 51.9, 53.1, 59.1, 59.5, 56.6, 75.1, 61.4, 70.2, 67, 58.1, 66.2, 65.6, 68.6, 70.5%”; the growth entry (runs of 2021) is “inactive: 70.2, 80, 80.9, 70.8, 60.9, 66.5, 63.2 (2×), 69.6, 60.5, 65.4, 61.2, 58, 68.4, 58.4, 62.3 (2×), 50.5, 53.2, 59.3, 63.5, 51.3, 54.6, 56.7, 56.1, 58.2, 67.3, 72.5, 64.6, 62.1, 66.3, 66, 67.1, 67.9, 61.7, 59.5, 58.9 (2×), 60.3, 55.3, 66.1, 66.2, 65.5, 47.7, 53.9, 50, 51.5, 54.8, 40.1, 50.1, 49, 45.5, 58.5, 64.3%”.

The values above are taken from PubChem BioAssay (NCI).
